According to the supplement of paper PMC8728848:
Some of the results follow.

Assays:
Test in all cases: glycan array binding signal (z-score within array); higher = stronger binding
Conditions in all cases: glycan notation: IUPAC condensed, linker removed
[1] = target: GlcNAc(b1-4)GlcNAc(b1-4)GlcNAc(b1-4)GlcNAc(b1-4)GlcNAc(b1-4)GlcNAc
Summary of the method: (§1)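 Glycan array binding is given as a within-array Z-score, which can be read as non-binding when negative. The arrays, 3228 of them, came from the Consortium for Functional Glycomics database and were retained only where the protein sequence was available. Z-scores were averaged across arrays of the same protein sequence at different concentrations or buffers and across linkers.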

[2] = target: GlcNAc(b1-4)[GlcNAc(b1-6)]GalNAc
Summary of the method: as §1

[3] = target: GlcNAc(b1-6)Gal(b1-4)GlcNAc
Summary of the method: as §1

GlcNAc(b1-6)GalNAc = target: GlcNAc(b1-6)GalNAc
Summary of the method: as §1

[4] = target: GlcNAc6S(b1-3)Gal(b1-4)GlcNAc
Summary of the method: as §1

Kdn(a2-3)Gal(b1-3)GalNAc = target: Kdn(a2-3)Gal(b1-3)GalNAc
Summary of the method: as §1

Kdn(a2-3)Gal(b1-3)GlcNAc = target: Kdn(a2-3)Gal(b1-3)GlcNAc
Summary of the method: as §1

Kdn(a2-3)Gal(b1-4)Glc = target: Kdn(a2-3)Gal(b1-4)Glc
Summary of the method: as §1

Kdn(a2-3)Gal(b1-4)GlcNAc = target: Kdn(a2-3)Gal(b1-4)GlcNAc
Summary of the method: as §1

[5] = target: Kdn(a2-3)Gal(b1-4)[Fuc(a1-3)]GlcNAc
Summary of the method: as §1

Kdn(a2-6)Gal(b1-4)GlcNAc = target: Kdn(a2-6)Gal(b1-4)GlcNAc
Summary of the method: as §1

[6] = target: Man(a1-2)Man(a1-2)Man(a1-3)Man
Summary of the method: as §1

[7] = target: Man(a1-2)Man(a1-2)Man(a1-6)[Man(a1-3)]Man
Summary of the method: as §1

Man(a1-2)Man(a1-3)Man = target: Man(a1-2)Man(a1-3)Man
Summary of the method: as §1

[8] = target: Man(a1-2)Man(a1-3)[Man(a1-2)Man(a1-6)]Man
Summary of the method: as §1

[9] = target: Man(a1-2)Man(a1-3)[Man(a1-2)Man(a1-6)]Man(a1-6)[Man(a1-2)Man(a1-2)Man(a1-3)]Man
Summary of the method: as §1

[10] = target: Man(a1-2)Man(a1-3)[Man(a1-2)Man(a1-6)]Man(a1-6)[Man(a1-2)Man(a1-2)Man(a1-3)]Man(b1-4)GlcNAc(b1-4)GlcNAc
Summary of the method: as §1

[11] = target: Man(a1-2)Man(a1-3)[Man(a1-6)]Man(a1-6)[Man(a1-2)Man(a1-3)]Man(b1-4)GlcNAc(b1-4)GlcNAc
Summary of the method: as §1

[12] = target: Man(a1-2)Man(a1-6)[Man(a1-3)]Man(a1-6)[Man(a1-2)Man(a1-2)Man(a1-3)]Man
Summary of the method: as §1

[13] = target: Man(a1-2)Man(a1-6)[Man(a1-3)]Man(a1-6)[Man(a1-2)Man(a1-2)Man(a1-3)]Man(b1-4)GlcNAc(b1-4)GlcNAc
Summary of the method: as §1

Man(a1-3)[Man(a1-6)]Man = target: Man(a1-3)[Man(a1-6)]Man
Summary of the method: as §1

[14] = target: Man(a1-3)[Man(a1-6)]Man(a1-6)[Man(a1-2)Man(a1-3)]Man(b1-4)GlcNAc(b1-4)GlcNAc
Summary of the method: as §1

[15] = target: Man(a1-3)[Man(a1-6)]Man(a1-6)[Man(a1-3)]Man
Summary of the method: as §1

[16] = target: Man(a1-3)[Man(a1-6)]Man(a1-6)[Man(a1-3)]Man(b1-4)GlcNAc(b1-4)GlcNAc
Summary of the method: as §1

[17] = target: Man(a1-3)[Man(a1-6)]Man(b1-4)GlcNAc(b1-4)GlcNAc
Summary of the method: as §1

[18] = target: Man(a1-3)[Man(a1-6)]Man(b1-4)GlcNAc(b1-4)[Fuc(a1-6)]GlcNAc
Summary of the method: as §1

Man(a1-6)Man = target: Man(a1-6)Man
Summary of the method: as §1

Man(b1-4)GlcNAc = target: Man(b1-4)GlcNAc
Summary of the method: as §1

MurNAc(b1-4)GlcNAc = target: MurNAc(b1-4)GlcNAc
Summary of the method: as §1

Neu5Ac(a2-3)Gal = target: Neu5Ac(a2-3)Gal
Summary of the method: as §1

[19] = target: Neu5Ac(a2-3)Gal(b1-3)GalNAc
Summary of the method: as §1

[20] = target: Neu5Ac(a2-3)Gal(b1-3)GalNAc(b1-3)Gal(a1-4)Gal(b1-4)Glc
Summary of the method: as §1

[21] = target: Neu5Ac(a2-3)Gal(b1-3)GalNAc(b1-4)[Neu5Ac(a2-3)]Gal(b1-4)Glc
Summary of the method: as §1

[22] = target: Neu5Ac(a2-3)Gal(b1-3)GalNAc(b1-4)[Neu5Ac(a2-8)Neu5Ac(a2-3)]Gal(b1-4)Glc
Summary of the method: as §1

[23] = target: Neu5Ac(a2-3)Gal(b1-3)GalNAc6S
Summary of the method: as §1

[24] = target: Neu5Ac(a2-3)Gal(b1-3)GlcNAc
Summary of the method: as §1

[25] = target: Neu5Ac(a2-3)Gal(b1-3)GlcNAc(b1-2)Man
Summary of the method: as §1

B1: PX14343A-bvu-539-29-539 (Bacteroides vulgatus) (protein)
chain: DSLTESSSNTFWQTPDDALMALASCYDALQSNQLYNSDQYSLGPLYMDCISDNGGHFNWSGWMEGYDMAMGIHTPSSSIIGSYWKDCYEVISRCNVLIANIDRVDMDASQKAIYQAEAKTIRALMYINLTMTYQDVPFLTAPLTIDEAECEKTDRAAIVAHVMTDLQDAAEVLPQNASSRGHITKGAALSLLGRVALYNEKWDDAIAAYKQVQGLGYSLDPSYAKLFTQSGETSPEIIFAVRYEGPGMSEGAAFNAHWNTPLEAMNGTIDLADAYYCKDGKPTTDTKIAELNGGGGLDVSKPNPAHFENRDPRLYSTLFVPGMLWNGKGGIDTSASNPYANVYGGAAASLSTVYVYKYFDPTDTSNSWDNGQDFYVVRYAEVLLSLAEAMVQKGGYVYSDVTALVNEVRQRADVNMPTVEEVEGTSLSKDELLEVIKHERRVELAFEGLRLFDLYRWKELDKAVANIENERTMYGLAYEARKFNGERDYVWPLPTAELDTNKKLVQHDLWK
glycan array binding signal (z-score) [1]: -0.481
glycan array binding signal (z-score) [2]: -0.304
glycan array binding signal (z-score) [3]: -0.038
glycan array binding signal (z-score) (GlcNAc(b1-6)GalNAc): 0.234
glycan array binding signal (z-score) [4]: -0.178
glycan array binding signal (z-score) (Kdn(a2-3)Gal(b1-3)GalNAc): -0.192
glycan array binding signal (z-score) (Kdn(a2-3)Gal(b1-3)GlcNAc): -0.031
glycan array binding signal (z-score) (Kdn(a2-3)Gal(b1-4)Glc): -0.013
glycan array binding signal (z-score) (Kdn(a2-3)Gal(b1-4)GlcNAc): -0.036
glycan array binding signal (z-score) [5]: 0.106
glycan array binding signal (z-score) (Kdn(a2-6)Gal(b1-4)GlcNAc): -0.096
glycan array binding signal (z-score) [6]: -0.136
glycan array binding signal (z-score) [7]: -0.086
glycan array binding signal (z-score) (Man(a1-2)Man(a1-3)Man): -0.271
glycan array binding signal (z-score) [8]: -0.129
glycan array binding signal (z-score) [9]: -0.261
glycan array binding signal (z-score) [10]: -0.433
glycan array binding signal (z-score) [11]: -0.437
glycan array binding signal (z-score) [12]: -0.259
glycan array binding signal (z-score) [13]: -0.229
glycan array binding signal (z-score) (Man(a1-3)[Man(a1-6)]Man): -0.263
glycan array binding signal (z-score) [14]: -0.34
glycan array binding signal (z-score) [15]: -0.226
glycan array binding signal (z-score) [16]: -0.247
glycan array binding signal (z-score) [17]: -0.432
glycan array binding signal (z-score) [18]: -0.297
glycan array binding signal (z-score) (Man(a1-6)Man): -0.184
glycan array binding signal (z-score) (Man(b1-4)GlcNAc): 0.136
glycan array binding signal (z-score) (MurNAc(b1-4)GlcNAc): -0.208
glycan array binding signal (z-score) (Neu5Ac(a2-3)Gal): -0.168
glycan array binding signal (z-score) [19]: -0.339
glycan array binding signal (z-score) [20]: -0.244
glycan array binding signal (z-score) [21]: -0.382
glycan array binding signal (z-score) [22]: -0.04
glycan array binding signal (z-score) [23]: -0.395
glycan array binding signal (z-score) [24]: -0.327
glycan array binding signal (z-score) [25]: 0.076
